# Source: PubChem BioAssay AID1030 (National Center for Advancing Translational Sciences (NCATS), 2008)
# Among all 220,000 compounds or so, about 16,000 (7.3%) were called active. Inconclusive means that the source gave no clear call. Such entries were picked first, then a sample of the others. The call rests on the fitted dose curve; in most records, active means well fitted inhibition curve with a large enough effect (not every such curve was filed as active); inconclusive means small, poorly fitted or top-dose-only effect, or another doubt; inactive means no such curve, though single readings can be large or run the other way. Potencies of inconclusive entries are left out as doubtful fits.
# Biological target: Aldehyde dehydrogenase 1A1 (Homo sapiens) (UniProt P00352)
# Sequence of UniProt P00352 (P00352 whole entry, looked up): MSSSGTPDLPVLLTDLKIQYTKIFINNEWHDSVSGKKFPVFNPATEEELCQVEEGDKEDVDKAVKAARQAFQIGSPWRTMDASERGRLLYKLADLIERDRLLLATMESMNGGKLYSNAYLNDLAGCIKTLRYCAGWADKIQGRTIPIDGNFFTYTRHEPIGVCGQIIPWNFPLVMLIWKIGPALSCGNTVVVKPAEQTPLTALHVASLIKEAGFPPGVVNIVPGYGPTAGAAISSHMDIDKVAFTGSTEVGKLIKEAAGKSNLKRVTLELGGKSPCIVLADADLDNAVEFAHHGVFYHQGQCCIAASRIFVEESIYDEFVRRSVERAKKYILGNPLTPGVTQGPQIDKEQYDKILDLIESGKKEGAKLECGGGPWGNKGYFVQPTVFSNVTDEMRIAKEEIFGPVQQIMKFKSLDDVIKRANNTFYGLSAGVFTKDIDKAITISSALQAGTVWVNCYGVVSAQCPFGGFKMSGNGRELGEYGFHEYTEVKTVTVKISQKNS
# Assay: qHTS Assay for Inhibitors of Aldehyde Dehydrogenase 1 (ALDH1A1)
# Settings: Purified ALDH1A1, NADH fluorescence, propionaldehyde substrate; series mostly up to 75.3 µM
# Potency means the concentration at half of the fitted maximal effect; tags describe the fitted curve by direction and shape.
row,Compound,Potency
1,CCN(Cc1ccncc1)Cc1cn[nH]c1-c1cc(OC)c(OC)c(OC)c1,"inconclusive [inhibitor, single point]"
2,C(=N\Nc1nc(-c2ccccc2)cs1)/c1ccco1,inactive
3,COc1ccc(OCCOc2ccc(C)nc2[N+](=O)[O-])cc1,inactive
4,Cc1cc(C)nc(SCc2nc3ncccn3c2Br)n1,"inconclusive [inhibitor, partial curve]"
5,Cc1cc(Oc2nc3c(C)cccn3c(=O)c2/C=C(\C#N)S(=O)(=O)c2ccccc2)ccc1Cl,"inconclusive [inhibitor, partial curve]"
6,Clc1cc(-c2ccc(/C=N/n3cnnc3)o2)ccc1Br,inactive
7,O=C(c1ccccc1)[C@@H]1O[C@H]1c1ccc(-c2ccccc2)cc1,inactive
8,Cc1cccc(NC(=O)Cn2cccc2)c1,inactive
9,O=C(/C=C/c1ccccc1)N1CCC(Cc2ccccc2)CC1,inactive
10,NS(=O)(=O)c1ccc(NC(=O)C2C3C=CC(C3)C2C(=O)O)cc1 (stereo not given),"inconclusive [inhibitor, partial curve]"
11,CCOC(=O)/C(=N\NC(=O)c1ccccc1)c1ccccc1,inactive
12,CCOc1ccccc1-c1cc(C(=O)N/N=C/c2ccc3c(c2)OCO3)c2ccccc2n1,"inconclusive [inhibitor, single point]"
13,Cc1ccc(C(=O)O)cc1N1C(=O)c2cccc3cc(Br)cc(c23)C1=O,inactive
14,CC1=C(C(=O)Nc2ccccc2)C(c2ccncc2)n2nnnc2N1 (stereo not given),"inconclusive [inhibitor, partial curve]"
15,COc1ccc2oc(=N)c(-c3nnc4n3CCCCC4)cc2c1,"inconclusive [inhibitor, single point]"
16,O=C1c2ccccc2-c2nccnc21,"inconclusive [inhibitor, single point]"
17,O=c1oc2cc(OCc3c(F)cccc3Cl)ccc2cc1-c1ccccn1,inactive
18,COc1ccc(S(=O)(=O)NN(C)C(=O)c2nn(-c3ccccc3)ccc2=O)cc1,"inconclusive [inhibitor, partial curve]"
19,Cc1nn(C)c(C)c1Sc1ccccc1N,inactive
20,CC(C)Cn1c(SCC(=O)N2CC(=O)Nc3ccccc32)nc2ccccc21,"inconclusive [inhibitor, single point]"
21,CCCn1c(NC(=O)c2ccccc2Br)nc2ccccc21,"inconclusive [inhibitor, single point]"
22,COc1ccc(C=O)cc1COc1ccccc1F,"inconclusive [inhibitor, single point]"
23,Cc1noc(C)c1COC(=O)COc1ccc2c(C)cc(=O)oc2c1,"inconclusive [inhibitor, partial curve]"

row,Compound,Potency
1,COC(=O)Cc1ccc(NC(=O)c2ccc(Br)o2)cc1,inactive
2,O=C(COc1ncnc2ccccc12)c1ccc2c(c1)OCCO2,"inconclusive [inhibitor, single point]"
3,O.O.O.O.O.O.O.O=S(=O)([O-])[O-].[Co+2],"inconclusive [inhibitor, single point]"
4,Cc1ccc(CN2CC(C(=O)Nc3nnc(SCc4c(Cl)cccc4Cl)s3)CC2=O)cc1 (stereo not given),"inconclusive [inhibitor, single point]"
5,Cc1ccc(-c2cc(C(=O)NCc3ccccn3)c3ccccc3n2)cc1C,"inconclusive [inhibitor, partial curve]"
6,O=C(Nc1cc(S(=O)(=O)Nc2ccc(Cl)cc2)ccc1O)c1ccc(S(=O)(=O)N2CCCCCC2)cc1,active: 3.16 µM
7,COC(=O)CC1C2(C)CC34OC5(C)O[C@@]6(C7/C(=C(/O)C(C)C)C(=O)OC(c8ccoc8)[C@]7(C)C(OC(C)=O)C(OC(C)=O)[C@]6(O5)[C@@]13C)C(OC(C)=O)[C@]4(O)C2OC(=O)C(C)C (stereo not given in full),inactive
8,COc1ccc2c(C)cc(SCc3c(C)noc3C)nc2c1,"inconclusive [inhibitor, partial curve]"
9,COC(=O)c1sc(S(=O)(=O)Nc2ccc(C)cc2)c(C(=O)OC)c1C,"inconclusive [inhibitor, single point]"
10,O=C(CSc1nnc(Cc2cccs2)n1-c1ccccc1)NC1CCCCC1,inactive
11,Cc1ccc2oc(-c3cc(NC(=O)c4ncn[nH]4)ccc3O)nc2c1,"inconclusive [inhibitor, partial curve, poor fit]"
12,O=C(NCc1ccco1)/C(=C\c1ccco1)NC(=O)c1ccc(Br)o1,active: 28.2 µM
13,COc1ccc(C2c3[nH]c4ccccc4c3CC3C(=O)N(CCc4ccc(OC)c(OC)c4)CC(=O)N32)cc1 (stereo not given),"inconclusive [inhibitor, partial curve]"
14,CCN1CCN(C(=O)c2ccc3c(=O)n(CCC4=CCCCC4)c(=O)[nH]c3c2)CC1,"inconclusive [inhibitor, partial curve]"
15,CCN1CCc2nc(N)sc2C1,inactive
16,Cc1cc(C(=O)Cn2ncc(Cl)c(Cl)c2=O)c(C)n1CC(F)(F)F,"inconclusive [inhibitor, single point]"
17,COc1ccc(-c2c(NC(=O)c3ccco3)n(C)c3ccccc3c2=O)cc1,"inconclusive [inhibitor, single point]"
18,O=C(CSc1ccc([N+](=O)[O-])cn1)Nc1ccc(N2CCOCC2)cc1,inactive
19,C=C(C(=O)c1ccccc1)C(CC(=O)c1ccccc1)c1ccccc1 (stereo not given),"inconclusive [inhibitor, partial curve]"
20,Cc1ccc(S(=O)(=O)NCCC(=O)OCC(=O)Nc2ccccc2Cl)cc1,"inconclusive [inhibitor, single point]"
21,CCC(=O)Nc1c(C#N)c2nc3ccccc3nc2n1C1CCCCC1,"inconclusive [inhibitor, partial curve]"
22,COc1ccc(-c2[nH]c(-c3ccc(C)cc3)nc2SCC(=O)NCc2ccco2)cc1OC,"inconclusive [inhibitor, partial curve]"
